PubChem BioAssay AID488969 (Vanderbilt High Throughput Screening Facility, 2010)
The full ranking holds about 110,000 compounds; the median of “z-score” is about -0.1, and the highest 2% start at about 2. The list shows a part of the results. Calls of active or inactive are those of the source.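 The calls were made as follows: active = z-score in the third read window above 3 or below -3; inactive = the rest.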

Biological target: Metabotropic glutamate receptor 8 (Rattus norvegicus) (UniProt P70579)
UniProt P70579, sequence (P70579 whole entry, looked up): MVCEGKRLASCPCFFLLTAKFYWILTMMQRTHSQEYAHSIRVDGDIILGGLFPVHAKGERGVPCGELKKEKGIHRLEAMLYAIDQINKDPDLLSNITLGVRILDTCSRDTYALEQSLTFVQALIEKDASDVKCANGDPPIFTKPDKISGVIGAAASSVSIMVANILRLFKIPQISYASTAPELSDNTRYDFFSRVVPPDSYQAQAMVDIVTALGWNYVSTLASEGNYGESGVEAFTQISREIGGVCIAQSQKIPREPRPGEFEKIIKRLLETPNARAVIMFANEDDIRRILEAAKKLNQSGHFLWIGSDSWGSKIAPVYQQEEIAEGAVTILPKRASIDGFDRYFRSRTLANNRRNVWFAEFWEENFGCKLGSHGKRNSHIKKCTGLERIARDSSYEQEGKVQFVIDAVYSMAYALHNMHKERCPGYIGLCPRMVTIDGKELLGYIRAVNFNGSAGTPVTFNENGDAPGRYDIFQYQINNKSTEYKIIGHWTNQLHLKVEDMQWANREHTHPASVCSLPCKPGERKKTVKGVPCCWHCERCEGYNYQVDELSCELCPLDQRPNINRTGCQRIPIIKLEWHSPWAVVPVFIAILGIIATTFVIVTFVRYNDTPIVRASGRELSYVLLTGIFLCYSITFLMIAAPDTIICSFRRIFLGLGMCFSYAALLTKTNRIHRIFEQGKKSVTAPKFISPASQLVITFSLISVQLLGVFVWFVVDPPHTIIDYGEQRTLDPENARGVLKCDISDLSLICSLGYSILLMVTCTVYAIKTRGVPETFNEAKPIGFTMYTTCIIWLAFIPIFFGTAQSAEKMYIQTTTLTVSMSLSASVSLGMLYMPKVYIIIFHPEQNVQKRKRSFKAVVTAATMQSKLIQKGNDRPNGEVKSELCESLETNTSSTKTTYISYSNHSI
Assay: mGluR8 Gi/Go-coupled signaling modulation – cell-based, rat, thallium flux, HTS, primary screen (AID 488969)
Details: HEK293 rat mGluR8, GIRK (G protein-gated inwardly rectifying potassium channel) thallium flux, FluoZin2; at 10 µM; stronger effect = higher value; submaximal glutamate (EC20) added with thallium

| Structure (SMILES) | z-score |
| --- | --- |
| Cn1c(SCC(=O)N2CCN(c3ccccc3)CC2)nnc1-c1cc2ccccc2o1 | -0.0754 |
| CC(C)C(=O)NC(Nc1cccc2cccnc12)C(Cl)(Cl)Cl (centres undefined) | -0.141 |
| CCOC(=O)c1ccc(OCc2nc(-c3cccs3)no2)cc1 | 0.286 |
| Cc1cc(C)cc(SCc2noc(C(=O)NCC3CCCO3)c2C(=O)O)c1 (centres undefined) | -0.238 |
| CC1CN(c2c3c(nc4ncnn24)CCCC3)CC(C)O1 (centres undefined) | -0.374 |
| Cc1ccc(Sc2ncnc3onc(C)c23)cc1 | -0.0889 |
| Cc1cccc(CCNC(=O)CN(C)S(=O)(=O)c2ccc3c(c2)c(=O)n(C)c(=O)n3C)c1 | 0.513 |
| CCC(C)(C(=O)NC1CCCCC1)N(C(=O)c1cnccn1)c1c(C)n(C)n(-c2ccccc2)c1=O (centres undefined) | -1.37 |
| COc1cc(NC(=O)N2CCOCC2)cc(OC)c1 | 0.0122 |
| COc1ccc(C(=O)Nc2ccc3c(c2)C(=O)c2ccccc2C3=O)cc1OC | -0.209 |
| CCOC(=O)/C=C/C(=O)OCC(=O)Nc1ccc(OC)c(Cl)c1 | -0.0911 |
| CCCCCCc1nc2ccccc2c(=O)n1N | -0.112 |
| Cc1cc(C)nc(N(C#N)CCOc2ccc(Cl)cc2)n1 | -1.19 |
| CC(C)(C)SCCNC(=O)c1ccccc1 | 0.363 |
| CC(=O)c1cccc(NC(=O)COC(=O)c2cccc(N3C(=O)c4ccccc4C3=O)c2)c1 | 0.155 |
| COc1ccc(C2CC(=O)N3C(=C2C#N)SCC3(O)c2ccccc2)cc1 (centres undefined) | -0.459 |
| CC(C)(C)NC(=O)CN1CCC(O)(c2ccccc2)CC1 | -0.263 |
| O=C(Nc1ccc(Cc2ccncc2)cc1)C1CCC(N2C(=O)C3CC=CCC3C2=O)CC1 (centres undefined) | -0.702 |
| O=C1CC(c2ccc(F)cc2)CC(O)=C1C1NCCc2ccccc21 (centres undefined) | 1.81 |
| O=C(CSc1nnc(-c2ccc(O)cc2)n1Cc1ccco1)c1ccccc1 | -0.622 |
| O=C(CCl)N(c1ccc(Cl)cc1)c1c[nH]c2ccccc12 | -0.186 |
| COc1ccccc1NC(=O)C1=C(C)Nc2nnnn2C1c1ccccn1 (centres undefined) | -0.207 |

| Structure (SMILES) | z-score |
| --- | --- |
| CC(=O)Nc1cnc(NC(=O)c2cccc(F)c2)cc1C | 0.483 |
| O=C(NC(=S)Nc1ccc(N2CCOCC2)cc1)c1ccco1 | active: 3.46 |
| O=C(NNC(=O)c1ccc(-c2ccccc2)cc1)c1ccccc1 | 0.168 |
| O=C(O)COc1ccc2c3c(c(=O)oc2c1)CCC3 | -0.0993 |
| CCOC(=O)C1=NNC(C(=O)c2ccccc2)C1c1ccc(OC)cc1 (centres undefined) | -0.587 |
| Cc1sc2ncnc(NCCCO)c2c1C | 0.0603 |
| CCOc1ccc(N(CC(=O)N2CCc3ccccc32)S(=O)(=O)c2c(C)noc2C)cc1 | -0.356 |
| CC1CC(C)CN(CC(=O)Nc2ccc3c(c2)OCCO3)C1 (centres undefined) | -0.603 |
| Cc1sc(NC(=O)C2C3C=CC(C3)C2C(=O)O)c(C(N)=O)c1-c1ccc(C(C)C)cc1 (centres undefined) | -0.404 |
| O=C(Nc1cccc(S(=O)(=O)NCc2ccco2)c1)c1cc(-c2ccc(F)cc2)nc2ccccc12 | 1.28 |
| Cc1nc2c(C(=O)N3CCOCC3)cnn2c(C)c1Cc1cccc(Cl)c1 | 0.156 |
| CC(NC(=O)/C=C/c1ccc(Br)cc1)c1ccccc1 (centres undefined) | -0.285 |
| CN1C(=O)/C(=C\c2ccccc2)Sc2ccc(C(=O)N3CCN(c4ccccn4)CC3)cc21 | -0.549 |
| C/C(=N/O)c1c(O)c(C)c(-c2ccccc2)n(-c2ccccc2)c1=O | -0.717 |
| CC(=O)Nc1ccc(N=Nc2ccc(O)cc2)cc1 | -0.0923 |
| CCc1nnc(NC(=O)CSc2nnc(-c3ccco3)n2C)s1 | -0.0388 |
| Cc1nc2c(C(=O)NCCC(C)C)c[nH]n2c(=O)c1Cc1ccccc1F | -1.03 |
| CCN1/C(=C(\O)c2ccccc2)C(=O)c2ccccc2S1(=O)=O | 1.04 |
| Cc1ccc(CNC(=O)C(Cc2ccccc2)NS(=O)(=O)c2cccs2)cc1 (centres undefined) | -0.105 |
| CS(=O)(=O)N1CCN(C(=O)c2cc(-c3cccs3)nc3ccccc23)CC1 | 0.479 |
| CCOC(=O)c1ccc(CNC(=O)c2cc(C(C)(C)C)oc2C)o1 | -0.962 |
| Cc1ccc(OCCNC(=O)Cn2cnc3c(=O)n(C)c(=O)n(C)c32)cc1C | -0.0629 |

| Structure (SMILES) | z-score |
| --- | --- |
| CC(C)CCSc1nc2c(c(=O)[nH]c(=O)n2C)n1CCc1ccccc1 | 0.00527 |
| CCCS(=O)(=O)N1CCCC(C(=O)NCCN2CCC(Cc3ccccc3)CC2)C1 (centres undefined) | -0.184 |
| CCC(C)NC(=O)C1CCCN(c2nc(C)cc(OC)n2)C1 (centres undefined) | -0.0784 |
| CCN1CCN(c2nc3c(c(=O)[nH]c(=O)n3C)n2CCCSc2ncccn2)CC1 | -0.00295 |
| CCOC(=O)C1=C(OCc2ccc(Cl)cc2)C2C=C(C)C=CC2N=C1 (centres undefined) | -0.322 |
| COC(=O)c1ccc(Oc2nc(Nc3ccc(C)c(C)c3)nc(N(C)C)n2)cc1 | 0.132 |
| Cn1c(=O)[nH]c(=O)c2c1nc(N1CCCCC1)n2CCSc1nc2ccccc2o1 | 0.125 |
| COc1ccc(N=C2SC(CC(=O)Nc3ccc(F)cc3)C(=O)N2Cc2ccco2)cc1 (centres undefined) | -0.198 |
| Cc1occc1C(=O)Nc1cccnc1 | 0.0996 |
| Cc1ccc(C(=O)NC(=C(Cl)Cl)S(=O)(=O)c2ccccc2)cc1 | -0.676 |
| C=CCNC(=O)CCCOc1ccc(C)cc1 | -0.456 |
| COC(=O)C1=COC(C)C2CN3CCc4c([nH]c5ccccc45)C3CC12 (centres undefined) | 1.46 |
| Cc1[nH]n(-c2ccccc2)c(=O)c1/C=N\NC(=O)C1COc2ccccc2O1 (centres undefined) | -0.0839 |
| Cc1ccc(C(C(=O)NC(C)(C)C)N(Cc2ccco2)C(=O)CCC(=O)Nc2nccs2)cc1 (centres undefined) | -0.178 |
| O=[n+]1c2c(n([O-])c3cc(F)c(F)cc31)CCCC2 | -0.343 |
| CCOC(=O)c1[nH]c2ccc(C)cc2c1N=C(C)N(C)C | -0.443 |
| Cc1ccc(OCC(=O)N/N=C\c2cn(Cc3ccccc3)c3ccccc23)cc1C | -0.0858 |
| Cc1ccccc1-n1c(-c2ccc(Cl)cc2)cnc1SCC(=O)NC1CCS(=O)(=O)C1 (centres undefined) | -0.203 |
| Cc1cc(NC(=O)C2C3C=CC(C3)C2C(=O)O)no1 (centres undefined) | -0.164 |
| Cc1cc(C(C)(C)C)oc1C(=O)N(CC(=O)NC1CCCC1)c1cccc(C(F)(F)F)c1 | -0.42 |
| COC(=O)c1ccccc1NC(=O)C1CCC(=O)N1S(=O)(=O)c1ccc(C)cc1 (centres undefined) | 0.251 |
| CC(C)(C)n1nc2c(c1NC(=O)c1ccc(Br)cc1)CS(=O)C2 (centres undefined) | -0.601 |

| Structure (SMILES) | z-score |
| --- | --- |
| COCCn1c(CN2CCN(c3cccc(Cl)c3)CC2)nc2c1c(=O)n(C)c(=O)n2C | 0.122 |
| OC(COCc1ccccc1)CN1CCN(c2ccccc2)CC1 (centres undefined) | 0.802 |
| CN1CCN(C(=O)CN2C(=O)CC(C)(C)S(=O)(=O)c3ccccc32)CC1 | 1.16 |
| COc1cccc(N=C2SC(C(=O)Nc3ccccc3F)CC(=O)N2C)c1 (centres undefined) | -0.119 |
| O=C1C=C(NCc2ccc(Cl)cc2)CCC1 | -0.138 |
| Cc1onc(-c2c(Cl)cccc2Cl)c1C(=O)Nn1cnnc1 | 1.65 |
| C/C=C/Cn1c(Br)nc2c1c(=O)[nH]c(=O)n2C | -0.224 |
| Cn1c(NCC(O)c2ccccc2)nc2c1c(=O)n(Cc1ccc(Cl)cc1)c(=O)n2C (centres undefined) | -0.833 |
| Cc1ccc(NC(=O)c2cc(-c3cccc(O)c3)on2)cc1C | 1.73 |
| COc1ccc(Cl)cc1N1C(=O)C2CCCN2C1c1sccc1C (centres undefined) | 0.188 |
| COc1ccc2c(c1)CC/C2=N\OC(=O)c1cccc(C)c1 | -0.125 |
| Cc1csc(SCC(=O)NCCc2ccc(Cl)cc2Cl)n1 | -0.278 |
| CCCOc1ccc(C(C)=O)cc1CC(C(=O)OCC)C(=O)OCC | -0.373 |
| C=CCNC(=S)N1CCN(CCN=CC2=C(O)CC(c3ccco3)CC2=O)CC1 (centres undefined) | -0.0308 |
| Cn1c(SCC(=O)Nc2ccc3nc(SCC(=O)N4CCCC4)sc3c2)nnc1-c1ccc(N)cc1 | -0.641 |
| O=C(O)CNS(=O)(=O)c1ccc(-c2ccccc2)cc1 | -0.287 |
| COc1ccc(OC)c(S(=O)(=O)N(C)CC(=O)Nc2ccc3c(c2)OCCO3)c1 | -0.133 |
| c1ccc(CN2CCN(c3nc(N4CCOCC4)c4ccccc4n3)CC2)cc1 | -0.143 |
| CC(=O)Nc1ccc(N/C=C/C(=O)c2ccco2)cc1 | -0.183 |
| Cc1ccnc(NC(=O)c2cc(-n3cnnc3)ccc2Cl)c1 | 0.0864 |
| COc1ccccc1-n1nnnc1SCC(=O)Nc1ccccn1 | -0.429 |
| O=C(CN(CC(=O)N1CCOCC1)S(=O)(=O)c1ccc(Br)s1)N1CCOCC1 | -0.0951 |

| Structure (SMILES) | z-score |
| --- | --- |
| NNC(=O)C1CCCn2c1nc1sc3c(c1c2=O)CCCC3 (centres undefined) | -0.112 |
| Cn1nc(C(F)(F)F)c(C(=O)Nc2ccc(F)cc2F)c1Sc1cccc(C(F)(F)F)c1 | -0.345 |
| Cn1cnnc1Sc1ccc(C(=O)NCCC23CC4CC(CC(C4)C2)C3)cc1[N+](=O)[O-] | -0.0314 |
| CCOC(=O)c1sc(NC(=O)CSc2ncn(-c3ccccc3)n2)nc1C | -0.633 |
| COC(=O)c1c(C)[nH]c(C)c1-c1ccccc1 | -0.352 |
| NNC(=O)c1ccc(COc2ccc3c(c2)CCC3)cc1 | -0.0335 |
| COc1ccc(OC)c(-c2[nH]nc3c2C(c2ccco2)C(C#N)=C(N)O3)c1 (centres undefined) | -1.34 |
| Cc1ccc(CNC(=O)C(NS(=O)(=O)c2cccs2)C(C)C)cc1 (centres undefined) | 0.0265 |
| CCCc1nnc(NC(=O)CN2C(=O)c3ccccc3C2=O)s1 | -0.175 |
| Cc1nc2ccc(NC(=O)NCc3ccco3)cc2s1 | 0.494 |
| Cc1nc(CS(=O)(=O)c2ccc(Cl)cc2)cc(Sc2ccccc2Cl)n1 | -0.863 |
| CO/N=C(/CS(=O)(=O)Cc1ccccc1Cl)c1ccc(Cl)cc1Cl | -0.328 |
| Cc1ccc(SCCC(=O)N2CCCC2)cc1 | 0.426 |
| O=S(=O)(c1ccc(S(=O)(=O)n2cnc3ccccc32)cc1)N1CCCCCC1 | -1 |
| CNC(=O)COc1cccc(C(=O)NCc2ccccc2)c1 | -0.158 |
| COc1cccc(OCC(=O)Nc2ccccc2NC(C)=O)c1 | 0.489 |
| CCn1cnc2sc(C(=O)Nc3ccc4c(c3)OCO4)c(C)c2c1=O | -0.145 |
| O=C(NCCc1nc2ccccc2[nH]1)c1ccco1 | -0.563 |
| N#Cc1c(N)nc2c(c1-c1ccncc1)CCCCC2 | -0.3 |
| CCCSc1nc(N2CCOCC2)c2c(c1C#N)CC(C)(C)SC2 | -0.252 |
| CC(C)OC(=O)CSc1nc(-c2ccc(F)cc2)cc(C(F)(F)F)n1 | -0.0192 |
